Experimental data taken from the GPR68 mutational scans of Howard et al. (2025).

B1: GPR68, Q15743 (parent)
chain: MGNITADNSSMSCTIDHTIHQTLAPVVYVTVLVVGFPANCLSLYFGYLQIKARNELGVYLCNLTVADLFYICSLPFWLQYVLQHDNWSHGDLSCQVCGILLYENIYISVGFLCCISVDRYLAVAHPFRFHQFRTLKAAVGVSVVIWAKELLTSIYFLMHEEVIEDENQHRVCFEHYPIQAWQRAINYYRFLVGFLFPICLLLASYQGILRAVRRSHGTQKSRKDQIQRLVLSTVVIFLACFLPYHVLLLVRSVWEASCDFAKGVFNAYHFSLLLTSFNCVADPVLYCFVSETTHRDLARLRGACLAFLTCSRTGRAREAYPLGAPEASGKSGAQGEEPELLTKLHPAFQTPNSPGSGGFPTGRLA

Columns and labels:
[1] = variants of: B1; assay: cAMP reporter score (Enrich2 score, wild type = 0); higher = more signal; HEK293T, FACS bins
[2] = variants of: B1; assay: surface expression score (Enrich2 score, wild type = 0); higher = more signal; HEK293T, FACS bins

Variant	cAMP reporter score ([1]; pH 5.5)	cAMP reporter score ([1]; pH 6)	cAMP reporter score ([1]; pH 6, modulator: ogerin)	cAMP reporter score ([1]; pH 6.5, modulator: ogerin)	surface expression score [2]
V29L	1.24	0.769	1.3	1.24	1.82
V29M	0.803	-0.234	1.07	0.174	1.33
V29N	-0.523	0.268	-1.75	-0.898	-2.23
V29P	-1.82	-0.995	-1.68	-0.902	-2.67
V29Q	-1.31	-1.51		-1.04	-3.33
V29R	-1.03	-0.947	-1.46	-0.694	-2.14
V29S	-0.594	-0.976	-1.39	-0.845	-2.07
V29T	-0.691		-1.51	-0.716	-1.9
V29W	0.42	-0.749	-0.117	-0.275	2.04
V29Y	-0.81	-1.09	-0.781	-0.569	-0.732
V29_T30del	-1.8	-1.07	-1.42	-0.861	-2.69
V29_T30insG	-1.9	-0.744	-1.6	-1.39	-2.03
T30A	0.274	1.54	0.613	1.75	0.531
T30C	0.8	0.632	0.758	0.505	0.253
T30D	-0.612			-0.892	-0.996
T30E	-1.12	-0.863	-1.91	-1.34	-2.51
T30F	1.9		2.51	3.2	3.02
T30G	0.817	0.115	0.271	-0.398	-1.17
T30H	-2.63	-0.643			-0.574
T30I	0.932	1.07	0.874	1.33	1.76
T30K	-0.157	0.315	-0.838	-0.06	-3.07

Variant	cAMP reporter score ([1]; pH 5.5)	cAMP reporter score ([1]; pH 6)	cAMP reporter score ([1]; pH 6, modulator: ogerin)	cAMP reporter score ([1]; pH 6.5, modulator: ogerin)	surface expression score [2]
T30L	0.866	1.84	0.787	2.18	1.32
T30M	0.595	0.832	0.608	1.46	1.07
T30P	-1.99	-1.16	-0.624		-1.67
T30Q	-1.86		-1.48	-0.694	
T30R	-2.25	-1.19	-1.85	-1.61	-2.45
T30V	1.44	1.92	1.52	2.65	2.3
T30W	0.803	0.112	0.208	-0.36	-0.247
T30Y	-1	-1.02	-0.994	-0.788	-1.84
T30_V31insG	-1.89	-0.377	-0.835	-1.48	-1.66
T30del	-0.205	1.84	0.076	0.422	-1.17
V31_L32del	-1.41	-1.03	-2.13	-1.2	-2.43
V31_L32insG	-1.22	-0.475		-0.663	-1.12
V31_V33del	-1.46	-0.449	-0.986	-1.1	-1.99
L32_V33del	-1.04	-0.734	-0.068	-0.51	-2.49
L32_V33insGSG	-1.41	-1.25	-0.586	-0.965	-1.76
L32del	-1.92		-1.54	-1.53	-3.5
V33A	-1.12	0.04	-1.01	-0.497	-2.05
V33C	-0.059	-0.974	0.058	-0.342	-0.214
V33D	-2.32	-1.24	-1.64	-1.84	-3.06
V33E	-1.78	-0.975	-2.14	-1.52	
V33F	2.72	-0.052			0.9

Variant	cAMP reporter score ([1]; pH 5.5)	cAMP reporter score ([1]; pH 6)	cAMP reporter score ([1]; pH 6, modulator: ogerin)	cAMP reporter score ([1]; pH 6.5, modulator: ogerin)	surface expression score [2]
V33G	-1.08	-1.12	-0.394	-1.25	-1.6
V33H	-1.53	-1.51	-1.56	-0.724	-1.79
V33I	-0.239	0.291	0.146	0.173	-0.053
V33K	-1.52	-1.75	-2	-1.4	-2.5
V33L	0.168	0.243	-0.52	0.968	0.3
V33M	0.616	0.139	0.517	0.552	-0.985
V33N	-0.994	-0.919	-1.42	-1.51	-2.38
V33P	-1.29	0.087	-0.917	-0.419	-2.62
V33R	-1.73	-1.92	-1.48	-0.765	-3.01
V33S	-0.89	-0.302	0.101	-1.14	-1.9
V33T	0.28	-0.947	-0.205	0.226	-1.72
V33W	-1.12		-1.19	-0.917	-1.84
V33Y	-3.1		-1.68	-1.71	-2.5
V33_V34insGSG	-1.31	-1.47	-1.82	-1.22	-2.4
V34A	-0.151	-0.2	-0.285	-1.27	-1.28
V34C	0.253	-0.676	-0.343	-0.321	-1.64
V34D	-0.769	-0.959	-0.631	-0.913	-1.78
V34E	-0.804	-0.723	-1.69	-0.522	-2.6
V34F	0.48	0.803	0.603	0.55	0.677
V34G	-0.604	-1.36	-1.29	-1.67	-1.96
V34H	-0.424	-0.019	0.007	-0.159	-2.45

Scores with a large standard error are left out. Not listed are two conditions whose scores span a narrow range. In variant names, del marks residues removed and ins residues inserted between the two positions. For some of these results: The data file names ogerin without a concentration.
